Test results from PubChem BioAssay (Tox21).
Where “and” joins values, the source holds several entries; their conditions need not be identical. Equal entries are not always repeated. Inconclusive results, whose numbers are uncertain, are shown with a selection of clear calls. For some of these results: Potencies of inconclusive entries are doubtful fits and often do not repeat. More than one record can exist for a structure, and the calls need not agree. Calls of active or inactive are those of the source. Unless noted, calls come from the whole dose curve; as a rule, active = well fitted curve in the direction sought with a large enough effect in the repeat runs; inconclusive = weak or mixed curves; inactive = no such curve, though single readings can be large; an effect the other way counts as inactive or inconclusive.

Tests used:
[1] = qHTS assay to identify aromatase inhibitors - cell viability counter screen (AID 743084); settings: MCF-7 aro ERE viability, CellTiter-Fluor, 24 h; activity change, negative = cytotoxicity: at 70.3 µM (top of the series);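 note: cells stimulated with testosterone during compound exposure; nearly all actives have a fitted effect of over 55% in size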; note: potency is the fitted concentration of half-maximal effect; for activity change, negative = cytotoxicity: % is set by controls: 0 for no effect and ±100 for the full control effect
[2] = molecular target: Aryl hydrocarbon receptor (Homo sapiens) (UniProt P35869); assay: qHTS assay to identify small molecule that activate the aryl hydrocarbon receptor (AhR) signaling pathway (AID 743085); note: potency is the fitted concentration of half-maximal effect; nearly all actives have a fitted effect of over 15% in size
UniProt P35869, sequence (P35869 whole entry, looked up): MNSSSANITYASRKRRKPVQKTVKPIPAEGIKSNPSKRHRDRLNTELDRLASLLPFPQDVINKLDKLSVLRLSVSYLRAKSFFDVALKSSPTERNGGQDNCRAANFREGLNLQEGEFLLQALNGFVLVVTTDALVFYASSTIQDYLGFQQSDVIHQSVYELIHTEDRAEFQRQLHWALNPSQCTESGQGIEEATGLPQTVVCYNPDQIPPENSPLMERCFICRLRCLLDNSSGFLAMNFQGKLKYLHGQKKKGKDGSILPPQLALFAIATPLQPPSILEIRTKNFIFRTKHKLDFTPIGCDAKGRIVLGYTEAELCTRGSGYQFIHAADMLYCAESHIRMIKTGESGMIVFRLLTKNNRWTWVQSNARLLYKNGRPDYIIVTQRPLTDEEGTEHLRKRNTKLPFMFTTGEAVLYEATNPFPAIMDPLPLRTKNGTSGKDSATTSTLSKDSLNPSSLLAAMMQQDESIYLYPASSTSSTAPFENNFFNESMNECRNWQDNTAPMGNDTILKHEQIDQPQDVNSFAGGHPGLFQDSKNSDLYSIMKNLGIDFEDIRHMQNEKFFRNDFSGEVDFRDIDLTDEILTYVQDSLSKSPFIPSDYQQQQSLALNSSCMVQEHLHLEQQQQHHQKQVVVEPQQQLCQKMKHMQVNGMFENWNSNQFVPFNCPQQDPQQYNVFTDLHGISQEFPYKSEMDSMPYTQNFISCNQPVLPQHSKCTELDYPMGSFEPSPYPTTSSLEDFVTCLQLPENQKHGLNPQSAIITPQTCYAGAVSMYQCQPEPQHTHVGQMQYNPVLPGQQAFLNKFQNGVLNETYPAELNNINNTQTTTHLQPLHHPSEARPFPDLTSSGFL
Method in brief: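 AhR agonist activity is inferred from enhanced light output of a DRE-controlled firefly luciferase reporter in HepG2 cells, measured with ONE-Glo following 24 h treatment at 37C.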

[3] = molecular target: Peroxisome proliferator-activated receptor gamma (Homo sapiens) (UniProt P37231); assay: qHTS assay to identify small molecule antagonists of the peroxisome proliferator-activated receptor gamma (PPARg) signaling pathway (AID 743191; calls by dose curve; note: nearly all actives have a fitted effect of over 30% in size; note: potency is the fitted concentration of half-maximal effect; for ratio activity, negative = inhibition: % is set by controls: 0 for no effect and ±100 for the full control effect); settings: HEK293H PPARg-UAS-bla, beta-lactamase ratio, antagonist, 17 h; ratio activity, negative = inhibition: at 62.6 µM (top of the series) unless noted
UniProt P37231, sequence (P37231 whole entry, looked up): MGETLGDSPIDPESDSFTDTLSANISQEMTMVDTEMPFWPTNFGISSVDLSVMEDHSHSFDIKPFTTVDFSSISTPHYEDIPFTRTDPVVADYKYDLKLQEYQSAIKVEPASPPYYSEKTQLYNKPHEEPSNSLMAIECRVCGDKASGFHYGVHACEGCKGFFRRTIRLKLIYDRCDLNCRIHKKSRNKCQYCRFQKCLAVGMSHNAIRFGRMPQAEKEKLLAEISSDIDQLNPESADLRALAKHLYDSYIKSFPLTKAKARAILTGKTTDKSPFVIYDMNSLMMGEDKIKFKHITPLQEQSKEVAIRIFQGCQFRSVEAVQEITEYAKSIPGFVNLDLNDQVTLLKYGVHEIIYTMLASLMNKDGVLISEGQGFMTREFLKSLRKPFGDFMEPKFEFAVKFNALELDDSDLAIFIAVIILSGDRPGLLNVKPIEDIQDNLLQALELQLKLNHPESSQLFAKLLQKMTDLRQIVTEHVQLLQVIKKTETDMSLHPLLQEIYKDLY
Method in brief: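 Beta-lactamase reporter under UAS control in HEK293H PPARg-bla cells; compound treatment 17 h at 37C. Read-out: fluorescence intensity after 1 h room-temperature incubation with LiveBLAzer B/G FRET substrate.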

[4] = qHTS assay for small molecule agonists of the antioxidant response element (ARE) signaling pathway (AID 743202; active = well fitted activation curve with a large enough effect in the signal ratio in the repeat runs, not every such curve was filed as active; inconclusive = weak or mixed curves, or effect the other way; inactive = no such curve, though single readings can be large or run the other way; the % refers to the signal ratio; note: potency is the fitted concentration of half-maximal effect; for activation: % is set by controls: 0 for no effect and ±100 for the full control effect); settings: HepG2 ARE-bla reporter, beta-lactamase FRET, 16 h; activation: at 73.3 µM (top of the series) unless noted
Method in brief: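 Quantitative high-throughput format in HepG2 cells bearing an integrated ARE-beta-lactamase reporter. Compound exposure lasted 16 h at 37 C, and fluorescence was read 2 h after adding LiveBLAzer B/G substrate at room temperature.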

[5] = qHTS assay for small molecule agonists of the antioxidant response element (ARE) signaling pathway - cell viability counter screen (AID 743203; calls by dose curve; note: potency is the fitted concentration of half-maximal effect; nearly all actives have a fitted effect of over 55% in size); settings: ARE-bla HepG2 viability, CellTiter-Glo luminescence, 16 h; viability change, negative = cytotoxic: at 73.3 µM (top of the series)
Method in brief: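 Cells (ARE-bla HepG2, 2,000/well) receive DMSO-dissolved compounds after a 5 hrs rest. Plates incubate 16 hrs at 37C/5% CO2. CellTiter-Glo luminescence is then recorded after 30 min at room temperature.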

[6] = qHTS assay for small molecule activators of the heat shock response signaling pathway - cell viability counter screen (AID 743209); settings: HSE-bla HeLa viability, CellTiter-Glo luminescence, 5 h; activity change, negative = cytotoxicity: at 62.6 µM (top of the series); note: potency is the fitted concentration of half-maximal effect; nearly all actives have a fitted effect of over 50% in size
Method in brief: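 Quantitative HTS format, Tox21 10K library. HeLa cells carrying an HSE-driven beta-lactamase reporter were treated 5 h at 37 C, then assessed for viability by CellTiter-Glo luminescence.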

[7] = qHTS assay to identify small molecule agonists of the peroxisome proliferator-activated receptor delta (PPARd) signaling pathway - cell viability counter screen (AID 743211); settings: PPARd-bla HEK293H viability, CellTiter-Glo luminescence, 17 h; activity change, negative = cytotoxicity: at 62.6 µM (top of the series); note: potency is the fitted concentration of half-maximal effect; nearly all actives have a fitted effect of over 55% in size
Method in brief: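 qHTS cell viability: PPARd-bla HEK293H; 17 h cpd, 37C; CellTiter-Glo, luminescence at 30 min RT.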

[8] = qHTS assay to identify small molecule antagonists of the peroxisome proliferator-activated receptor delta (PPARd) signaling pathway - cell viability counter screen (AID 743213); settings: PPARd-bla HEK293H viability, CellTiter-Glo luminescence, 17 h; viability change, negative = cytotoxic: at 62 µM (top of the series) unless noted; note: nearly all actives have a fitted effect of over 50% in size; note: potency is the fitted concentration of half-maximal effect
Method in brief: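 Cytotoxicity counter screen: CellTiter-Glo luminescence read 30 min after addition, in the same wells as the reporter assay. There, PPARd UAS-bla HEK293H cells (3000/well) were treated 17 h at 37 C with compound and 300 nM L165041.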

[9] = qHTS assay to identify small molecule agonists of the farnesoid-X-receptor (FXR) signaling pathway - cell viability counter screen (AID 743218); settings: FXR-bla HEK293T viability, CellTiter-Glo luminescence, 16 h; viability change, negative = cytotoxic: at 62.6 µM (top of the series) unless noted; note: potency is the fitted concentration of half-maximal effect; nearly all actives have a fitted effect of over 45% in size
Method in brief: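 In GeneBLAzer FXR-UAS-bla HEK 293T cells, compounds act for 16 h at 37 C. Cell viability is then scored in the reporter wells by CellTiter-Glo, 30 min at RT, luminescence.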

[10] = molecular target: Peroxisome proliferator-activated receptor delta (Homo sapiens) (UniProt Q03181); assay: qHTS assay to identify small molecule antagonists of the peroxisome proliferator-activated receptor delta (PPARd) signaling pathway (AID 743215; active = well fitted inhibition curve with a large enough effect in the signal ratio in the repeat runs, not every such curve was filed as active; inconclusive = weak or mixed curves, or effect the other way; inactive = no such curve, though single readings can be large or run the other way; the % refers to the signal ratio;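 note: cells stimulated with agonist L165041 at 300 nM final during compound exposure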; note: potency is the fitted concentration of half-maximal effect; for ratio activity, negative = inhibition: % is set by controls: 0 for no effect and ±100 for the full control effect); settings: HEK293H PPARd-UAS-bla, beta-lactamase FRET ratio, antagonist, 17 h; ratio activity, negative = inhibition: at 62 µM (top of the series) unless noted
UniProt Q03181, sequence (Q03181 whole entry, looked up): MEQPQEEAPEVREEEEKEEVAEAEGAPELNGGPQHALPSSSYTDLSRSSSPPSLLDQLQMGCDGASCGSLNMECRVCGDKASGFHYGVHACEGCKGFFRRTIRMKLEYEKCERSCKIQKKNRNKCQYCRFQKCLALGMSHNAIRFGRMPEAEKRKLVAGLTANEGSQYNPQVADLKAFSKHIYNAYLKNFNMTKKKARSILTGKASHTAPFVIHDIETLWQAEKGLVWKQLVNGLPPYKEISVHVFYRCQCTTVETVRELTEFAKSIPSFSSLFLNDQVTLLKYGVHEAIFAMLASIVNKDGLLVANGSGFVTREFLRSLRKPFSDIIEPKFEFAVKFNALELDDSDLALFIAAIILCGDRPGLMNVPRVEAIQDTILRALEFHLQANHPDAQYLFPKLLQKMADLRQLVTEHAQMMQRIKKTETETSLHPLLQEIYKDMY
Method in brief: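 Antagonist-mode beta-lactamase reporter screen: HEK293H cells with UAS-bla under PPARd control, stimulated by 300 nM L165041 (final) alongside test compound for 17 h at 37 C, then FRET fluorescence after 2 h substrate incubation.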

[11] = molecular target: Vitamin D3 receptor (Homo sapiens) (UniProt P11473); assay: qHTS assay to identify small molecule antagonists of the vitamin D receptor (VDR) signaling pathway (AID 743223; active = well fitted inhibition curve with a large enough effect in the signal ratio in the repeat runs, not every such curve was filed as active; inconclusive = weak or mixed curves, or effect the other way; inactive = no such curve, though single readings can be large or run the other way; the % refers to the signal ratio; note: potency is the fitted concentration of half-maximal effect); settings: VDR-UAS-bla HEK293T, beta-lactamase FRET ratio, 16 h; activity change, negative = inhibition: at 61 µM (top of the series) unless noted
UniProt P11473, sequence (P11473 whole entry, looked up): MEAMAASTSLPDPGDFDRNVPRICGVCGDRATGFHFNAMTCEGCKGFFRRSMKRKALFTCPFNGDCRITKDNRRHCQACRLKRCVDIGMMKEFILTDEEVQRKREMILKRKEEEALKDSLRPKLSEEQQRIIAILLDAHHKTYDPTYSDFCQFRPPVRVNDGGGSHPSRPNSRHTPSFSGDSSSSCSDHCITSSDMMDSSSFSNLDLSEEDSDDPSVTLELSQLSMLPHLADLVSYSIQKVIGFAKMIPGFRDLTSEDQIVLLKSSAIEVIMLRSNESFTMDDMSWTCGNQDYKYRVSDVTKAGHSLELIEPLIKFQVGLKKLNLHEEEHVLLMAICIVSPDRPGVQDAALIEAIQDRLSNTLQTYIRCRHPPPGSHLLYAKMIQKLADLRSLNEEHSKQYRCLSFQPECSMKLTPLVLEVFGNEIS
Method in brief: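 Reporter line VDR-bla; stimulus 1alpha,25-(OH)2 vitamin D3, 3 nM final; compound co-addition, 16 h 37C/5% CO2; LiveBLAzer B/G substrate 2 h RT; fluorescence intensity.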

[12] = qHTS assay to identify small molecule that activate the aryl hydrocarbon receptor (AhR) signaling pathway - cell viability counter screen (AID 743086); note: potency is the fitted concentration of half-maximal effect; nearly all actives have a fitted effect of over 45% in size
Method in brief: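 Cytotoxicity counter screen: CellTiter-Fluor signal (30 min, 37 C) in 4000 HepG2 cells/well carrying the DRE-luciferase reporter, following 24 h compound exposure at 37 C.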

[13] = molecular target: Peroxisome proliferator-activated receptor gamma (Homo sapiens) (UniProt P37231); assay: qHTS assay to identify small molecule agonists of the peroxisome proliferator-activated receptor gamma (PPARg) signaling pathway (AID 743094; active = well fitted activation curve with a large enough effect in the signal ratio in the repeat runs, not every such curve was filed as active; inconclusive = weak or mixed curves, or effect the other way; inactive = no such curve, though single readings can be large or run the other way; the % refers to the signal ratio; note: potency is the fitted concentration of half-maximal effect); settings: HEK293H PPARg-UAS-bla, beta-lactamase FRET ratio, 17 h; activation: at 57 µM (top of the series) unless noted
Method in brief: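 Stably transfected HEK293H cells (GeneBLAzer PPARg UAS-bla) were incubated with test substances for 17 h at 37C after a 5 h pre-incubation; beta-lactamase activity was then detected by FRET substrate fluorescence.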

[14] = qHTS assay to identify small molecule antagonists of the peroxisome proliferator-activated receptor gamma (PPARg) signaling pathway - cell viability counter screen (AID 743194); settings: PPARg-bla HEK293H viability, CellTiter-Glo luminescence, 17 h, co-treated with 50 nM rosiglitazone; activity change, negative = cytotoxicity: at 62.6 µM (top of the series); note: % is set by controls: 0 for no effect and ±100 for the full control effect; nearly all actives have a fitted effect of over 55% in size
Method in brief: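 Viability was measured as CellTiter-Glo luminescence in GeneBLAzer PPARg UAS-bla HEK293H cells. These cells had been exposed 17 h at 37 C to compounds together with rosiglitazone at 50 nM final, with the beta-lactamase readout taken in the same wells.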

[15] = qHTS assay for small molecule activators of the heat shock response signaling pathway (AID 743210; active = well fitted activation curve with a large enough effect in the signal ratio in the repeat runs, with a control signal flat, not every such curve was filed as active; inconclusive = weak or mixed curves; the % refers to the signal ratio; note: potency is the fitted concentration of half-maximal effect); settings: HeLa HSE-bla reporter, beta-lactamase ratio, 5 h; activation: at 62.6 µM (top of the series)
Method in brief: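 HeLa HSE-bla cells, overnight plating; cpd in DMSO 5 h, 37 C; LiveBLAzer B/G FRET substrate 2.5 h RT; fluorescence intensity read.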

[16] = molecular target: Peroxisome proliferator-activated receptor delta (Homo sapiens) (UniProt Q03181); assay: qHTS assay to identify small molecule agonists of the peroxisome proliferator-activated receptor delta (PPARd) signaling pathway (AID 743212; calls by dose curve; note: potency is the fitted concentration of half-maximal effect); settings: HEK293H PPARd-UAS-bla, beta-lactamase FRET ratio, 17 h; activation: at 62.6 µM (top of the series) unless noted
Method in brief: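 HEK293H PPARd-bla cells; 5 h preincubation 37 C/5% CO2; compound (DMSO) 37 C; LiveBLAzer B/G FRET substrate 2 h RT; fluorescence intensity.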

[17] = molecular target: Vitamin D3 receptor (Homo sapiens) (UniProt P11473); assay: qHTS assay to identify small molecule agonists of the vitamin D receptor (VDR) signaling pathway (AID 743222; calls by dose curve; note: potency is the fitted concentration of half-maximal effect); settings: HEK293T VDR-UAS-bla, beta-lactamase FRET ratio, 16 h; activation: at 63.5 µM (top of the series) unless noted
Method in brief: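 Agonist activity measured in VDR-bla reporter cells. Exposure 16 h, 37C, 5% CO2; detection by B/G FRET substrate, 2 h RT.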
Tags give direction and shape of the fitted curve or compound fluorescence and quenching.

In the case of `c1cnc2c(c1)ccc1cccnc12`, the Potency [1] is reported as inconclusive: 8.63 µM [cytotoxic, full curve] and inconclusive: 13.7 µM [cytotoxic, full curve], the Potency [2] is reported as active: 55 µM and active: 54.5 µM and the Potency [3] is reported as active: 1.56 µM and inconclusive: 1.74 µM [full curve, poor fit]. The ratio activity, negative = inhibition [3] was inconclusive: -8.84%, the Potency [4] was inconclusive: 344 nM [falling, full curve, poor fit] and inconclusive: 137 nM [falling, full curve, poor fit] and the activation [4] was inconclusive: -12.2% [at 94.8 µM]. For the same compound, the Potency [5] was inconclusive: 5.5 µM [cytotoxic] and active: 5.45 µM and inconclusive: 6.11 µM [cytotoxic, full curve], the Potency [6] was inconclusive: 54.9 µM [cytotoxic, single point] and the Potency [7] was active: 698 nM and active: 1.95 µM and active: 692 nM. For the same compound, the Potency [8] was inconclusive: 4.41 µM [cytotoxic, full curve, poor fit] and inconclusive: 2.19 µM [cytotoxic, full curve] and active: 389 nM and the Potency [9] was active: 1.55 µM.
With `O=S(=O)(O)c1ccc(O)cc1` the Potency [1] was “inactive”, the Potency [2] was inconclusive: 33.5 µM [activator, partial curve, poor fit] and the Potency [3] was “inactive”. The Potency [10] was “inactive” and the activity change, negative = inhibition [11] was inconclusive: 0.237%.
In the case of `COC(=O)C1=C(C)NC(COC(N)=O)=C(C(=O)OC(C)C)C1c1cccc(Cl)c1Cl` (stereo not drawn), the Potency [1] is reported as inconclusive: 33.5 µM [cytotoxic, single point], the Potency [12] is reported as inconclusive: 33.5 µM [falling, single point] and the Potency [13] is reported as active: 21.3 µM. The Potency [3] was inconclusive: 33.5 µM [fluorescent, single point], the activity change, negative = cytotoxicity [14] was inconclusive: -30.5% [cytotoxic] and the Potency [4] was inconclusive: 29.8 µM [rising, partial curve]. For the same compound, the Potency [15] was inconclusive: 22 µM [activator], the Potency [16] was inconclusive: 23.7 µM [rising, partial curve] and the Potency [8] was “inactive”. For the same compound, the Potency [10] was inconclusive: 26.6 µM [activator, partial curve], the Potency [17] was active: 29.8 µM and the Potency [11] was inconclusive: 21.3 µM [fluorescent, partial curve, poor fit].
